Reference: patent US20120258108A1 (AbbVie / Abbott, published 2012)

T1: Recombinant Human VEGF 165 (human, UniProt P15692-4 27-191)
T1 sequence (looked up): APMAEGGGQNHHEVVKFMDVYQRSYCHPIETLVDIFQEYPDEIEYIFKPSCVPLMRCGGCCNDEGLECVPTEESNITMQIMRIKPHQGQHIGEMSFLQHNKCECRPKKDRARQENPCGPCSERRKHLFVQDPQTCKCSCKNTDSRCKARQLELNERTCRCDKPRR


Legend:
[1] = molecular target: T2, Recombinant Human TNFα/TNFSF1A (human, UniProt P01375 partial chain); assay: cell-based or functional assay
[2] = molecular target: T2, Recombinant Human TNFα/TNFSF1A; assay: SPR (BIACORE)
Protocol: (§1) The BIACORE assay (Biacore, Inc, Piscataway, N.J.) determines the affinity of antibodies or DVD-Ig with kinetic measurements of on-rate and off-rate constants. Binding of antibodies or DVD-Ig to a target antigen (for example, a purified recombinant target antigen) was determined by surface plasmon resonance-based measurements with a Biacore® 1000 or 3000 instrument (Biacore® AB, Uppsala, Sweden) using running HBS-EP (10 mM HEPES [pH 7.4], 150 mM NaCl, 3 mM EDTA, and 0.005% surfactant P20) at 25° C. All chemicals were obtained from Biacore® AB (Uppsala, Sweden) or otherwise from a different source as described in the text. For example, approximately 5000 RU of goat anti-mouse IgG, (Fcγ), fragment specific polyclonal antibody (Pierce Biotechnology Inc, Rockford, Ill.) diluted in 10 mM sodium acetate (pH 4.5) is directly immobilized across a CM5 research grade biosensor chip using a standard amine coupling kit according to manufacturer's instructions and procedures at 25 μg/ml. Unreacted moieties on the biosensor surface are blocked with ethanolamine. Modified carboxymethyl dextran surface in flowcell 2 and 4 is used as a reaction surface. Unmodified carboxymethyl dextran without goat anti-mouse IgG in flow cell 1 and 3 is used as the reference surface. For kinetic analysis, rate equations derived from the 1:1 Langmuir binding model are fitted simultaneously to association and dissociation phases of all eight injections (using global fit analysis) with the use of Biaevaluation 4.0.1 software. Purified antibodies or DVD-Ig are diluted in HEPES-buffered saline for capture across goat anti-mouse IgG specific reaction surfaces. Antibodies or DVD-Ig to be captured as a ligand (25 μg/ml) are injected over reaction matrices at a flow rate of 5 μl/min. The association and dissociation rate constants, kₒₙ (M⁻¹ s⁻¹) and koff (s⁻¹) are determined under a continuous flow rate of 25 μl/min. Rate constants are derived by making kinetic binding measurements at different antigen concentrations ranging from 10-200 nM. The equilibrium dissociation constant (M) of the reaction between antibodies or DVD-Igs and the target antigen is then calculated from the kinetic rate constants by the following formula: KD=koff/kₒₙ. Binding is recorded as a function of time and kinetic rate constants are calculated.

Recombinant Human DLL4 = Recombinant Human DLL4 (human, UniProt Q9NR61 partial chain); assay: SPR (BIACORE)
Protocol: as §1

[3] = molecular target: T1, Recombinant Human VEGF 165; assay: SPR (BIACORE)
Protocol: as §1

T2 sequence (P01375 77-233 limits assumed): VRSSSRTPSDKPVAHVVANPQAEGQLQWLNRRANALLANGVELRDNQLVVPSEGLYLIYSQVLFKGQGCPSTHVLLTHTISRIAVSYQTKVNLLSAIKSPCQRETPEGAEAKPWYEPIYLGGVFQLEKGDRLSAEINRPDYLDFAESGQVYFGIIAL
Chain of Recombinant Human DLL4 (Q9NR61 27-524 limits assumed): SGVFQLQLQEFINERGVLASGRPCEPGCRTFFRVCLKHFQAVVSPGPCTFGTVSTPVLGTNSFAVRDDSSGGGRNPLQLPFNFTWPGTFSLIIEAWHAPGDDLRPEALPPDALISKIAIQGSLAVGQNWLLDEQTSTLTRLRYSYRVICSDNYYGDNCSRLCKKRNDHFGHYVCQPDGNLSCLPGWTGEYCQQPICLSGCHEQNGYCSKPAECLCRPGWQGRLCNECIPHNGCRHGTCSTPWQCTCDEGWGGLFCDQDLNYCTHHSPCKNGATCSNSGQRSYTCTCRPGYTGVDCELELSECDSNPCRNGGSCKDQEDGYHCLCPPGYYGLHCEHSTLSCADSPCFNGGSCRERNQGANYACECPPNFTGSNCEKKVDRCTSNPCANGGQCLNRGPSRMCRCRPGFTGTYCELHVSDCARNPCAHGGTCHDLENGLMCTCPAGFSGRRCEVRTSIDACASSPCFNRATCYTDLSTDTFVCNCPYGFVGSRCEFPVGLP

C-terminal VD TNFα Neutralization Assay EC50 nM (L929 cells) [1] [nM]	Kd [2] [nM]	koff [2] [s⁻¹]	kon [2] [M⁻¹ s⁻¹]	Kd (Recombinant Human DLL4) [nM]	koff (Recombinant Human DLL4) [s⁻¹]	kon (Recombinant Human DLL4) [M⁻¹ s⁻¹]	Kd [3] [nM]	koff [3] [s⁻¹]	kon [3] [M⁻¹ s⁻¹]	Binder
> 500	22	0.00049	22000							DVD1709 (bispecific antibody, human IgG1, kappa, DVD-Ig; also called PGE2 (AB057) / TNF (AB058) DVD-Ig) heavy: EVTLRESGPALVKPTQTLTLTCTASGYTFTKYWLGWIRQPPGKGLEWMGDIYPGYDYTHYNEKFKDRVTLSTDTSKSQAVLTMTNMDPVDTATYYCARSDGSSTYWGQGTTVTVSSASTKGPEVQLVQSGTEVKKPGESLKISCKASGFTFDDYAMHWVRQMPGKGLEWVSAITWNSGHIDYADSVEGQFTISRDNSFNTLFLQWSSLKASDTAMYYCAKVSYLSTASSLDYWGQGTMVTVSS[no letters for human IgG1 constant region] light: DVVMTQSPDSLAVSLGERATINCTSSQNIVHSNGNTYLEWYQQKPGQSPKLLIYKVSNRFSGVPDRFSGSGSGTDFTLTISSLQAEDVAVYYCFQVSHVPYTFGGGTKVEIKRTVAAPEIVMTQSPATLSVSPGERATLSCRASQGIRNYLAWYQQKPGQAPRLLIYAASTLQSDVPARFSGSGSGTEFTLTISSLQSEDFAVYYCQRYNRAPYTFGQGTRLEIKRTVAAPSVFIFPPSDEQLKSGTASVVCLLNNFYPREAKVQWKVDNALQSGNSQESVTEQDSKDSTYSLSSTLTLSKADYEKHKVYACEVTHQGLSSPVTKSFNRGEC
				2.6	0.00015	56000	0.023	2.1e-06	91000	DVD1717 (bispecific antibody, human IgG1, kappa, DVD-Ig) heavy: EVQLVESGGGLVQPGGSLRLSCAVSGGSISSSSYYWGWIRQAPGKGLEWIGDIYYTGSTYYNPSLKSRVTISVDTSKNTFYLQMNSLRAEDTAVYYCARQALAMGGGSDKWGQGTLVTVSSASTKGPEVQLVESGGGLVQPGGSLRLSCAASGYTFTNYGMNWVRQAPGKGLEWVGWINTYTGEPTYAADFKRRFTFSLDTSKSTAYLQMNSLRAEDTAVYYCAKYPHYYGSSHWYFDVWGQGTLVTVSS[no letters for human IgG1 constant region] light: DYQLTQSPSSLSASVGDRVTITCSGQRLGDKYASWYQQKPGKSPKLVIYEDSKRPSGIPSRFSGSNSGDDATLTISSLQPEDFATYYCQAWDRDTGVFGQGTKVEIKRTVAAPDIQMTQSPSSLSASVGDRVTITCSASQDISNYLNWYQQKPGKAPKVLIYFTSSLHSGVPSRFSGSGSGTDFTLTISSLQPEDFATYYCQQYSTVPWTFGQGTKVEIKRTVAAPSVFIFPPSDEQLKSGTASVVCLLNNFYPREAKVQWKVDNALQSGNSQESVTEQDSKDSTYSLSSTLTLSKADYEKHKVYACEVTHQGLSSPVTKSFNRGEC
